Reference: publication PMC12136788
The list shows a part of the results.

B1: chr13:52475664:52475769:+|3pUTR|ENSG00000136108|msi1|FALSE|bound_elsewhere (ssRNA)
RNA: GGGAGUUCUACAGUCCGACGAUCGCGUCCCUUGGACUGCCUGUUGAUUGAUGGAAAGUGUCUGCACUGACACUUUUCGUCAGUAGUCUGUAGUUUCGUGGCCUCUUUUGAUUAUAACUGGGGUCACCAAGAAGGUUUACUUAACAACAGAGGAUUGAGCAUCA
B2: chr5:179730620:179730726:+|3pUTR|ENSG00000127022|msi1_unk|total|mutant (ssRNA)
RNA: GGGAGUUCUACAGUCCGACGAUCGAGCUUUAAAUCAUCCGAGCUUAAAUUGUCAGAUCGUUCAUUGCCUUUCCAGGGUUAUUCCGUAAAGUUUGUUGAAAACAAAAACGCCUUUUCUUGGUUCUUUUUUCAGUUAUUUUGAAGCAACAGAGGAUUGAGCAUCA
B3: chr1:51356092:51356193:-|3pUTR|ENSG00000085832|unk|FALSE|unique (ssRNA)
RNA: GGGAGUUCUACAGUCCGACGAUCUUCAGAGAUAAGGAAAAAUAUUUUGCACAGAUUUACUCCACUAUGGAAAAGGGAUGCUGUAGGUUGAACCAUUAUAGCCUCAGAUUCGAUCUUUUCCUAACUAAAAAUAUUAAAGCCUCACAACAGAGGAUUGAGCAUCA
B4: ENSG00000107863:be:win_1401|CDS|ENSG00000107863|bound_else_gene|NA|bound_elsewhere_windowed (ssRNA)
RNA: GGGAGUUCUACAGUCCGACGAUCGCUAAUGAAGUAUUGUCCAAGAAGUGCAUCUCAAGGAGCACUGACGUCUCCAUCUGUUAGUUUUAGUAAUCAUAGAACUCGUUCAUGGGAUUAUAUUGAGGGACAGGAUGAAACCUUAGACAACAGAGGAUUGAGCAUCA
B5: chr21:43756582:43756683:+|3pUTR|ENSG00000160209|msi1|total|mutant (ssRNA)
RNA: GGGAGUUCUACAGUCCGACGAUCGCAUUCGAACUUUUGGUUCUUACUUUGCUGCUCGUUCCGUCCCUGGGGAUUUCAGAUCUCCGGCUGUUGUUUCACCGUAUGGGAGGGUUGAUGUGAGCUUGCUUGGAGACACACGGUGCACAACAGAGGAUUGAGCAUCA
B6: chr15:90882754:90882855:+|3pUTR|ENSG00000140564|msi1_unk|total|mutant (ssRNA)
RNA: GGGAGUUCUACAGUCCGACGAUCCACUUUGUGAUUAUUUCACUUCCGAUGCUGAUGAUUUGUUUUUGUAUUUUUAAUGGGGGCCGCAGCUGGACUACCCACGUUCUCACACCCACCGUCCGCCCUGCUCCUCCCUGGCUGCCCCAACAGAGGAUUGAGCAUCA
B7: chr1:33300114:33300153:+|3pUTR|ENSG00000160094|msi1_unk|FALSE|overlapping (ssRNA)
RNA: GGGAGUUCUACAGUCCGACGAUCCCCUGCCCCCAGCCCCCACAGACACACCCCAAUCUGAAAGCCAUGCGUGUCGGUGUAUAUAGGAACCAUGUACAGAGCCCAGAGAAGCCCCCUACAUCCCCCCGGGAAAAAAAAGAAAACCAACAGAGGAUUGAGCAUCA
B8: ENSG00000071054:stop:overlap|stop_codon|ENSG00000071054|stop_codon|NA|stop_codon (ssRNA)
RNA: GGGAGUUCUACAGUCCGACGAUCCUGGUGGCAGCAGUCAGGUUUAUUUCAUGACCUUAGGCAGGACUUCUCUUCUGAGCUGGUAGAAGCAGUGUGAUCCAGGGAUUACUGGCCUCCAGAGUCUUCAAGAUCCUGAGAACUUGGCAACAGAGGAUUGAGCAUCA
B9: ENSG00000174780:stop:overlap|stop_codon|ENSG00000174780|stop_codon|NA|stop_codon (ssRNA)
RNA: GGGAGUUCUACAGUCCGACGAUCAAGCUGAAGGUUGGAAGUUUGUUAAACUUAUCUGUAAAUAUAACGUGCAUAUAACUUUGUAGAGUAUCUUCUAAAAUUGCAUUUGACUUCUGUGAAAUUAUUAAAUGGAAGUUAUUGAUGCAACAGAGGAUUGAGCAUCA
B10: chr2:216672738:216672882:-|3pUTR|ENSG00000115461|msi1|FALSE|unique (ssRNA)
RNA: GGGAGUUCUACAGUCCGACGAUCUUCUCUUAGGCUUUUGUUUCUAUUUCAAACAUACUUUCUUGGUUUUCUAAUGGAGUAUAUAGUUUAGUCAUUUCACAGACUCUGGCCUCCUCUCCUGAAAUCCUUUUGGAUGGGGAAAGGCAACAGAGGAUUGAGCAUCA
B11: chr2:42682433:42682535:+|CDS|ENSG00000057935|unk|FALSE|unique (ssRNA)
RNA: GGGAGUUCUACAGUCCGACGAUCUCACGCUAUGGAUACAUUGUAUAGACACAGCUAUGAUUUGAGCAGUGCCAUUAGUGUCUUAGUACCACUCGGAGGACCUGUUUUAUGCAGAGAUGAAAUGGAGGAAUGGUCAGCCUCUGACAACAGAGGAUUGAGCAUCA
B12: chr7:73478266:73478367:-|CDS|ENSG00000009954|unk|total|mutant (ssRNA)
RNA: GGGAGUUCUACAGUCCGACGAUCGAGUGGCUCGCCACUCAAAGUGAAGAACUCAAAGAAUUCCAAAUCUCCUGAAGAACAUCCCGAAGAAAUGAUGAAGAUGAUGUCGCCCAAUAAGCUGCACACUAACUUUCACAUUCCUAACAACAGAGGAUUGAGCAUCA
B13: chr21:43695798:43695899:+|3pUTR|ENSG00000160208|msi1|total|mutant (ssRNA)
RNA: GGGAGUUCUACAGUCCGACGAUCACAAUAUUUUGUAAAAUGAUGCUUCCCCCUUCUCCAUGGUCCCGUCAAUUUUGUACAAUCCGGUAUCUGACUUUACAAGUUUGUUAUCCUUUCUAAUUUUUACUGAACUGAAAGCACAAACAACAGAGGAUUGAGCAUCA
B14: ENSG00000187498:stop:overlap|stop_codon|ENSG00000187498|stop_codon|NA|stop_codon (ssRNA)
RNA: GGGAGUUCUACAGUCCGACGAUCAGGUGAACCGGGACCUCCUGGAUUGCCAGGCUCCGUGGGGUCUCCAGGAGUUCCAGGAAUAGGCCCCCCUGGAGCUAGGGGUCCCCCUGGAGGACAGGGACCACCGGGGUUGUCAGGCCCCAACAGAGGAUUGAGCAUCA

Each binder was assayed against MSI1 full-length (mouse, UniProt Q61474 1-362) (assay: nsRBNS (natural sequence RNA bind-n-seq); RBNS binding buffer (assumed for nsRBNS): 25 mM Tris pH 7.5, 150 mM KCl, 3 mM MgCl2, 0.01% Triton X-100, 500 ug/ml BSA, 20 U/ml SUPERase-In, 4 C; UNK is unkempt and MSI1 is Musashi-1; names of the RNAs are library labels; protein concentration not given here; high values mean tight binding).
Sequence of UniProt Q61474 (Q61474 whole entry): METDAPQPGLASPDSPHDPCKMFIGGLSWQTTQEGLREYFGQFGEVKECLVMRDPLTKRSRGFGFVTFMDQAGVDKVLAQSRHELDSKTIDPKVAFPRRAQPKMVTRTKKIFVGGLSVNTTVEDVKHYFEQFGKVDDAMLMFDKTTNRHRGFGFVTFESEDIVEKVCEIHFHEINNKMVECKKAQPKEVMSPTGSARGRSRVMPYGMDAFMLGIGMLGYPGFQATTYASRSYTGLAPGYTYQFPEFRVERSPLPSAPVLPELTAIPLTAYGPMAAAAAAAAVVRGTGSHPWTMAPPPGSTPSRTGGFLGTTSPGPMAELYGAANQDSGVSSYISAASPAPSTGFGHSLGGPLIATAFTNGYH
B1 showed a binding signal of 0.74 enrichment R.
B2 was tested, and the binding signal was 0.274 enrichment R.
B3 was tested, and the binding signal was 0.404 enrichment R.
With B4 the binding signal was 3.62 enrichment R.
Work on B5 yielded a binding signal of 0.457 enrichment R.
In the case of B6, the binding signal is reported as 0.642 enrichment R.
B7 showed a binding signal of 1.04 enrichment R.
For B8, the binding signal was 0.605 enrichment R.
Binder B9 has a binding signal of 0.786 enrichment R.
With B10 the binding signal was 3.74 enrichment R.
With B11 the binding signal was 0.568 enrichment R.
With B12 the binding signal was 0.187 enrichment R.
B13 showed a binding signal of 0.493 enrichment R.
Work on B14 yielded a binding signal of 0.496 enrichment R.
